Experimental data taken from PubChem BioAssay AID1347417 (National Center for Advancing Translational Sciences (NCATS), 2020).
Screen size: about 120,000 compounds; about 5,300 (4.4%) were called active. Inconclusive results, whose numbers are uncertain, are shown with a selection of clear calls. Calls come from the whole dose curve; as a rule, active = well fitted inhibition curve with a large enough effect; inconclusive = small, poorly fitted or top-dose-only effect; inactive = no such curve, though single readings can be large or run the other way. Where the call is inconclusive, the potency comes from a doubtful curve fit.

Assay: qHTS Primary assay for Inhibitors of Plasmodium falciparum Dd2 growth in vitro; note: nearly all actives have a fitted effect of over 65% in size;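 for activity, negative = inhibition: plate controls were DMSO vehicle for no effect and reference drug for full effect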
Details: P. falciparum Dd2 growth, SYBR Green, 72 h; activity, negative = inhibition: at 28.9 µM (top of the series) unless noted; series mostly up to 28.9 µM
How it was run: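 Infected erythrocytes (Dd2, 0.3% parasitemia, 2.5% hematocrit final) are added to compound in RPMI-1640/Albumax II medium, grown 72 h at 37C in low oxygen, then lysed with saponin/Triton-X containing SYBR Green and read by fluorescence.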
Potency is the fitted concentration of half-maximal effect; tags give direction and shape of the fitted curve.

SMILES	activity, negative = inhibition	Potency	outcome
O=C(NC1CCCN(c2cc(-c3ccc(F)cc3)[nH]n2)C1)c1cc(Cl)ccc1F (centres undefined)	inactive: -5.53%	–	–
O=C(C[C@@H]1CCNC[C@@H]1Cc1cc(-c2ccccc2)on1)N1CCc2ccccc2C1	–	inconclusive: 5.62 µM [inhibitor, single point]	–
O[C@@H]1C[C@@H](c2nc(-c3cccnc3)no2)N(CC2CC2)C1	inactive: -6.61% [at 44.1 µM]	–	–
CC(=O)Nc1ccc(CN2C(=O)OC3(CCN(C(=O)COc4ccccc4)CC3)C2(C)c2ccccc2)cc1 (centres undefined)	–	inconclusive: 1 µM [inhibitor, full curve]	–
Cc1ccc(C(=O)N2CCC3(CC2)NC(=O)N(c2ccccc2Cl)N3)cc1C	–	inconclusive: 6.31 µM [inhibitor, single point]	–
Cc1ccc(C)c(CN2C(=O)c3ccccc3S(=O)(=O)c3ccc(C(=O)N(C)C4CCCCC4)cc32)c1	–	inconclusive: 17.8 µM [inhibitor, single point]	–
Cc1ccccc1CC(=O)N1CCC2(CC1)NC(=O)N(c1ccc(F)cc1)N2	inactive: -21.1%	–	–
O=C(c1c[nH]c2ncccc12)N1CCC(Cc2ccccc2)CC1	–	inconclusive: 6.31 µM [inhibitor, full curve, poor fit]	–
CC(C)c1nc2c(c(-c3ccc(O)cc3)n1)CCN(C(=O)c1cccc(Cl)c1)CC2	–	active: 7.94 µM	–
Cc1ccccc1-n1c(/C=C/c2ccc(O)cc2)nc2ccccc2c1=O	–	inconclusive: 12.6 µM [inhibitor, single point]	–
Clc1ccc2oc([C@H]3CCN(Cc4ccccc4)C3)nc2c1	–	inconclusive: 12.6 µM [inhibitor, partial curve]	–
O=C(Cn1ccn2nc3c(c2c1=O)CCCCC3)Nc1ccc2c(c1)OCO2	inactive: 22.7%	–	–
N#Cc1cccc(NC(=O)NC[C@H]2C[C@@H]3CCN2C[C@@H]3CN2CCN(c3ccccn3)CC2)c1	–	–	inactive
COc1ncccc1-c1cnc2[nH]cc(CC(=O)Nc3nc(C)cs3)c2c1	–	inconclusive: 11.2 µM [inhibitor, partial curve, poor fit]	–
CNC(=O)N1CCC2(CC1)CC(N(Cc1ccc(F)cc1)C1CC1)CCO2 (centres undefined)	–	inconclusive: 11.2 µM [inhibitor, partial curve, poor fit]	–
CC(C)(C)c1ccc(OCC(=O)Nc2ccc(Cl)cc2C(=O)c2ccccc2)cc1	–	inconclusive: 11.2 µM [inhibitor, single point]	–
O=C1NCCCCCCN(C(=O)Cc2ccccc2)[C@H]2CCCC[C@@H]12	–	–	inactive
CC1CCCN(CCCNC(=O)c2ccc3c(c2)N(Cc2ccccc2F)C(=O)c2ccccc2S3(=O)=O)C1 (centres undefined)	–	inconclusive: 0.891 µM [inhibitor, single point]	–
CC(C)CCN1CCC2(C1)C(=O)N(c1ccccc1)c1ccccc12 (centres undefined)	–	inconclusive: 10 µM [inhibitor, partial curve, poor fit]	–
Cc1ccc(/C=C/c2onc(C)c2S(=O)(=O)N2CCC(C(=O)Nc3ccc(C)c(N(C)C)c3)CC2)cc1	–	inconclusive: 10 µM [inhibitor, single point]	–
Cc1ccc(CNC(=O)CCCCCn2c(=O)[nH]c3ccccc3c2=O)cc1	inactive: 19.5%	–	–
CC1=C[C@@H](CN(C)CCO)[C@H](C(C)C)C[C@H]1Cc1nnc(-c2ccc(C)cc2)o1	–	active: 10 µM	–

SMILES	activity, negative = inhibition	Potency	outcome
CN(C)C(=O)C1CN(C(=O)NC2CCCCC2)CC12CCOCC2 (centres undefined)	–	inconclusive: 0.316 µM [inhibitor, full curve, poor fit]	–
Cc1ccc(/C=C/c2onc(C)c2S(=O)(=O)N2CCC(C(=O)N3CCC(N(C)C(C)C)CC3)CC2)cc1	–	active: 10 µM	–
COCC(=O)NC[C@@H]1C=C(C)[C@H](Cc2nc3ccc(C)cc3[nH]2)C[C@H]1C(C)C	–	inconclusive: 3.55 µM [inhibitor, single point]	–
CC1=C(C(=O)N(C)C)C(c2ccc(Cl)cc2)N2C(CC(=O)NC(C)c3ccccc3)=CSC2=N1 (centres undefined)	–	inconclusive: 2.82 µM [inhibitor, single point]	–
Cn1ccnc1CNC(=O)C[C@@H]1C[C@H]2O[C@H](CNCc3cnccc3Cl)[C@@H](O)[C@H]2O1	inactive: 0.368%	–	–
CCCNC(=O)N1CCCCCNC(=O)CC1c1ccccc1 (centres undefined)	–	inconclusive: 0.708 µM [inhibitor, full curve, poor fit]	–
Cc1ccc(-n2c(Cc3ccccc3)nnc2SCc2nc(-c3cccs3)no2)cc1	–	inconclusive: 17.8 µM [inhibitor, single point]	–
Cc1ccc(CN2CCSc3ccc(C(=O)N4CCN(c5ccccc5)CC4)cc32)cc1	–	inconclusive: 10 µM [inhibitor, single point]	–
CC(C)CN1C(=O)c2cccn2CC1CNC(=O)c1n[nH]c(=O)c2ccccc12 (centres undefined)	–	inconclusive: 17.8 µM [inhibitor, single point]	–
COc1ccc(OC)c(CN2CCC3OCCN(Cc4ccccc4)C(=O)C3C2)c1 (centres undefined)	–	inconclusive: 31.6 µM [inhibitor, single point]	–
CCC(CC)C(=O)N1CC[C@H]2NC(=O)N(c3ccc(C(C)C)cc3)C(=O)[C@H]21	–	inconclusive: 3.55 µM [inhibitor, partial curve, poor fit]	–
CCOC(=O)c1ccccc1NC(=O)CSc1nc2cn(CC)nc2c(=O)n1Cc1ccc(Cl)cc1	–	inconclusive: 17.8 µM [inhibitor, single point]	–
Cc1cc(CN2C[C@H](NC(=O)CNS(C)(=O)=O)[C@@H](C3CC3)C2)on1	inactive: -11.9%	–	–
O=C(NCc1ccc2c(c1)OCO2)c1nc(-c2ccc(F)cc2)c2cnccn12	–	inconclusive: 2.82 µM [inhibitor, partial curve, poor fit]	–
O=C(Nc1ccc2c(c1)CCC2)C1CCN(C(=O)c2ncn3c2COC(c2ccc(F)cc2)C3)CC1 (centres undefined)	–	–	inactive
CN(C1CCc2nn(C)c(=O)n2CC1)S(=O)(=O)c1cccc2cccnc12 (centres undefined)	inactive: -5.82%	–	–
CC(C)c1nncn1C1CCN(C(=O)c2cc(-c3cccs3)[nH]n2)C1 (centres undefined)	–	inconclusive: 5.62 µM [inhibitor, partial curve, poor fit]	–
O=C(Cc1c[nH]c2ncc(-c3ccccc3)cc12)NCC1CCOCC1	–	inconclusive: 2.82 µM [inhibitor, single point]	–
O=[S+]1([O-])NCC2(CCN(CC3CCCCC3)C2)Nc2ccccc21 (centres undefined)	–	active: 4.47 µM	–
CC(C)c1ccc(C2=CC(c3ccc(C(C)C)cc3)n3nnnc3N2)cc1 (centres undefined)	–	inconclusive: 10 µM [inhibitor, single point]	–
COc1ccc(C2Cn3cnc(C(=O)N4CCC(C(=O)Nc5ccc(Cl)cc5)CC4)c3CO2)cc1 (centres undefined)	–	–	inactive
O=C1NC2(CCN(Cc3ccccc3C(F)(F)F)CC2)Oc2ccccc21	–	–	inactive

SMILES	activity, negative = inhibition	Potency	outcome
O=C(CCC[C@H]1NC[C@@H]2CC1CN(Cc1ccccc1)C2)NCCCN1CCCCC1	–	inconclusive: 20 µM [inhibitor, single point]	–
O=C(Nc1cccc(Cl)c1)c1cnc2sc(N3CCCC3)nn2c1=O	inactive: -12%	–	–
CN1C(=O)Cc2cc(S(=O)(=O)N3CCN(c4ccccc4F)CC3)ccc21	–	inconclusive: 17.8 µM [inhibitor, single point]	–
CCN(CC)Cc1cnc2c(C(=O)NCC(C)c3ccccc3)cnn2c1 (centres undefined)	–	inconclusive: 11.2 µM [inhibitor, partial curve, poor fit]	–
COc1ccccc1Cc1nc2ccccc2nc1SCC(=O)N(C)c1ccc(F)cc1	–	inconclusive: 17.8 µM [inhibitor, single point]	–
C[S+](=O)([O-])N1C[C@H](C(=O)Nc2cccc(Cl)c2)C[C@@H]1c1ccc(F)cc1	–	inconclusive: 7.94 µM [inhibitor, partial curve, poor fit]	–
O=C(CCC[C@H]1NC[C@@H]2C[C@H]1CN(Cc1ccccc1)C2)N1CCN(C2CCCC2)CC1	–	inconclusive: 20 µM [inhibitor, partial curve, poor fit]	–
Cc1cccc(N2CCN(C(=O)Nc3cn(CC(C)C)c(=O)c4ccccc34)CC2)c1C	–	inconclusive: 10 µM [inhibitor, single point]	–
CC(C)c1ccc(CN(Cc2ccco2)c2cnc(S(C)(=O)=O)nc2C(=O)Nc2ccc(F)cc2)cc1	–	active: 11.2 µM	–
O=C1NCc2ccccc2CC12CCN(Cc1ccccc1OC(F)(F)F)CC2	inactive: -11.5%	–	–
CCOc1ccccc1N(CC(=O)NCCSc1ccccc1)S(=O)(=O)c1ccccc1	–	inconclusive: 7.94 µM [inhibitor, partial curve, poor fit]	–
COc1ccc(-c2cc(C(=O)NCCc3cnc[nH]3)c3c(c2)N(C)CCO3)cc1OC	–	inconclusive: 12.6 µM [inhibitor, partial curve, poor fit]	–
Cc1ccccc1CC(=O)N1C[C@@H](CO)[C@H](c2ccncc2)C1	inactive: 25.4%	–	–
O=C(NCc1ccccc1)c1noc(-c2ccc(F)cc2)n1	inactive: 42.6%	–	–
COc1cccc(CN(C)Cc2ccc(C)o2)c1O	–	inconclusive: 10 µM [inhibitor, partial curve, poor fit]	–
C[C@@H]1CN(C(=O)CC2CCCC2)C[C@@]1(O)C1CC1	inactive: 0.276%	–	–
O=C1Cc2c(-c3ccc4ccccc4c3)n[nH]c2CN1CCc1ccncc1	–	inconclusive: 31.6 µM [inhibitor, single point]	–
CCCCCCOc1ccc(C2C(=O)N(C3CCCCC3)CC(=O)N2CCC)cc1 (centres undefined)	–	inconclusive: 17.8 µM [inhibitor, single point]	–
Cc1nnc([C@H]2CCN(Cc3c[nH]c4ccccc34)C2)o1	–	inconclusive: 1.26 µM [inhibitor, full curve]	–
Cc1nsc(NC(=O)NCc2cccc(Cl)c2Cl)n1	–	inconclusive: 6.31 µM [inhibitor, partial curve, poor fit]	–
